# Reference: the supplement of paper PMC7826260
# The list shows a part of the results. One pool of 16,384 single-stranded DNAs met each Rep nickase domain in vitro for 1 h at 37 °C with 3 µM enzyme; only the middle of the 90-letter strands is printed. Numbers give uncut DNA relative to the enzyme-free pool, as log2; strong cutting gives strongly negative numbers. There is no active / inactive call. Reads are scaled to the total; where an enzyme cuts many sequences, the uncut ones exceed 0.
# Test system: T1, Rep nickase domain of tomato golden mosaic virus
# T1 sequence (residues 1-124, tag not shown): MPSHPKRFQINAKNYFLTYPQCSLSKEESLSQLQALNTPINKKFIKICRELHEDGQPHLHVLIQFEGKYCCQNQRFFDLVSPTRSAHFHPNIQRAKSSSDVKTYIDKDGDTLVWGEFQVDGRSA
# Assay: uncleaved DNA left, log2 of reads against the no-enzyme library (log2 ratio); higher = less cleavage (more negative = more Rep cleavage of the k-mer); sequences stand for … in CTCGTCCG…ACCGGAGA
# Protocol: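 A pool of 90-nt single-stranded DNAs with seven random bases just before the constant AC of the nick site (name = the seven bases) was cut by 3 µM recombinant His6-SUMO-tagged Rep nickase domain (300 nM DNA, 50 mM HEPES pH 8.0, 50 mM NaCl, 1 mM MnCl2, 1 h, 37 °C, three replicates). Uncut DNA was amplified and sequenced.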
row,Sequence,uncleaved DNA left (log2)
1,AAGAGCT,0.0824
2,ACCAGGA,0.0753
3,CGTCGAG,0.0787
4,GCCTTTT,0.0555
5,GCGTTCA,-0.0601
6,AGATTAT,0.07
7,AGGCCCA,0.0603
8,TCCGAAG,0.11
9,GGCTAGA,0.131
10,GTATGTG,-0.0163
11,TGGAAAA,0.0964
12,AGATCTT,-0.173
13,AGACGCC,-0.0158
14,ATTACCC,-0.152
15,AGGGTCT,0.0149
16,AGTGAGA,0.00874
17,AGGCTGG,0.0703
18,TTACACG,-0.189
19,AGTACAG,-0.0189
20,GTGTAAG,0.0263

row,Sequence,uncleaved DNA left (log2)
1,AGTTCGC,-0.0247
2,GGCCCGT,-0.00516
3,GCCCACG,0.167
4,GGTTTGC,-0.138
5,CGTAGGG,-0.0989
6,CTCTGCT,-0.223
7,CGATTAG,0.196
8,GCGTCGA,0.102
9,GGGGAAC,0.0873
10,CTACACG,-0.0179
11,CACAACC,-0.0185
12,AGGGATA,0.229
13,AGCACCT,-0.0338
14,AGGGGTC,0.0531
15,TCGGCGC,-0.141
16,ATGATCA,0.0789
17,ACAAAAA,0.00789
18,AAAAAAT,-0.0726
19,AAGAGCA,0.14
20,TCTCGAA,0.000207
